1 molecule from patent publication US20110027186A1 (AGENCY FOR SCIENCE TECHNOLOGY AND RESEARCH A STAR, published 2011) can be followed below.

Experiment [1] has as its target T1, TAZ (Transcriptional Coactivator with PDZ-Binding Motif), endogenous protein in human breast cancer cell … (human, UniProt Q9GZV5).
T1 construct: Endogenous protein detected by immunoblot; also called WWTR1; TAZ/WWTR1
Briefly: GST pulldown from Hs578T cell extract, immunoblot. In general terms: In western blotting, separated proteins are transferred to a membrane and probed.

In experiment [2] the target is T2, YAP, endogenous protein in human breast cancer cell lysates (human, UniProt P46937-3 1-454).
T2 construct: Endogenous protein detected by immunoblot; also called Yes-associated protein; endogenous YAP
Briefly: GST pulldown from Hs578T cell extract, immunoblot.

T1 sequence (Q9GZV5 whole entry): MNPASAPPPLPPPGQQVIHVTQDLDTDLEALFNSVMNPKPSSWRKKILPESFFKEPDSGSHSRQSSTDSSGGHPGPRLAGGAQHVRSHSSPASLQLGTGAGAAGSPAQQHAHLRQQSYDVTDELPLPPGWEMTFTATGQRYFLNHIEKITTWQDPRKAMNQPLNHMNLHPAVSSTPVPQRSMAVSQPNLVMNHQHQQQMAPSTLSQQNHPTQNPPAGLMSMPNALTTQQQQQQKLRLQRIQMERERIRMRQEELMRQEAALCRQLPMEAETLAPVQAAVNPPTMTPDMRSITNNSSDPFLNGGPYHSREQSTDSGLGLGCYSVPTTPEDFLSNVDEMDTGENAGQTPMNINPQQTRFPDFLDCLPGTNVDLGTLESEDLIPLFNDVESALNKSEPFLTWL

B1: GST (other)
chain: not shown
notes: Negative control of the pulldown; also called glutathione-S-transferase; immobilized GST control
Regarding B1, the binding result in experiment [1] and in experiment [2] was “no binding” throughout.
